Hit rate of the full screen: of about 39,000 compounds, about 220 (0.56%) showed activity. The list shows a part of the results.
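Note: static incubation at 37 °C against the wild-type strain, values averaged over two biological replicates.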

In this assay the test system is Escherichia coli K-12 BW25113. Description: relative growth (OD600 normalised to plate interquartile mean) (fraction); higher = less growth inhibition, active = 0.2 or less. The settings on record: 50 µM; LB; incubation time: overnight (16-24 h).
For the compound `COc1ccc(C#Cc2cnc3c(c2)C(=O)N([C@@H](C)CO)C[C@H](C)[C@@H](CN(C)CC2CCOCC2)O3)cc1`, the relative growth was inactive: 1.02.
Under `C[C@H](CO)N1C[C@H](C)[C@@H](CN(C)C(=O)c2ccccc2)OCCCC[C@H](C)Oc2ccc(NC(=O)Nc3ccccc3)cc2C1=O` stands inactive: 1.01; under `Cc1ccc(S(=O)(=O)N(C)C[C@@H]2Oc3ccc(NS(C)(=O)=O)cc3CC(=O)N([C@@H](C)CO)C[C@H]2C)cc1`, inactive: 1.02.
Under `NCCCC[C@H](NC(=O)[C@@H]1CCCN1C(=O)[C@@H]1CSSC[C@H](N)C(=O)N[C@@H](Cc2ccc(O)cc2)C(=O)N[C@@H](Cc2ccccc2)C(=O)N[C@@H](CCC(N)=O)C(=O)N[C@@H](CC(N)=O)C(=O)N1)C(=O)NCC(N)=O` stands inactive: 0.996.
The figure for `C[C@@H]1CN([C@H](C)CO)C(=O)Cc2cc(NC(=O)Cn3cnnn3)ccc2O[C@@H]1CN(C)S(C)(=O)=O` is inactive: 0.978.
As for `C[C@@H]1CCCCO[C@H](CN(C)C(=O)NC2CCCCC2)[C@H](C)CN([C@@H](C)CO)C(=O)c2cc(NC(=O)c3ccncc3)ccc2O1`, the relative growth was inactive: 0.95.
The figure for `COc1ccc(COC[C@]23NC(=S)N[C@H](c4ccccc4O2)[C@H]3COC(=O)NCCCCCC(=O)NO)cc1` is inactive: 0.994.
Under `CC(=O)Oc1cccc(O)c1` stands inactive: 1.03; under `O=c1[nH][nH]c(=O)c(Cl)c1Cl`, inactive: 0.999; under `C[C@@H]1CCCCO[C@@H](CN(C)C(=O)Nc2cccc3ccccc23)[C@H](C)CN([C@@H](C)CO)C(=O)c2cc(NC(=O)Nc3cccc4ccccc34)ccc2O1`, inactive: 0.875.
The figure for `COc1ccc(S(=O)(=O)N(C)C[C@@H]2OCCCC[C@@H](C)Oc3ccc(NC(=O)Nc4c(C)noc4C)cc3C(=O)N([C@@H](C)CO)C[C@@H]2C)cc1` is inactive: 1.02; for `Cc1noc(C)c1NC(=O)N(C)C[C@H]1OCCCC[C@H](C)Oc2ccc(NC(=O)Nc3ccc(C(F)(F)F)cc3)cc2C(=O)N([C@H](C)CO)C[C@@H]1C` it is inactive: 1.03.
For the compound `CC(=O)N/C=C1\C(=O)N(C)C(=O)C(C#N)=C1C`, the relative growth was inactive: 1.04.
For `C[C@@H]1CN([C@H](C)CO)C(=O)c2cc(Br)cnc2O[C@H]1CN(C)C(=O)Nc1ccc2c(c1)OCO2`, the relative growth was inactive: 1.01.
Under `C[C@@H]1CN([C@@H](C)CO)C(=O)Cc2cc(NC(=O)Nc3cccc4ccccc34)ccc2O[C@H]1CN(C)C(=O)Nc1cccc2ccccc12` stands inactive: 0.983; under `C[C@@H]1CN([C@@H](C)CO)C(=O)c2cc(NC(=O)c3ccccc3)ccc2O[C@@H](C)CCCCO[C@H]1CN(C)C(=O)Nc1ccccc1`, inactive: 1.02; under `C[C@@H]1CN([C@H](C)CO)C(=O)c2cccc(NS(=O)(=O)c3ccc(F)cc3)c2O[C@@H]1CN(C)S(=O)(=O)c1cn(C)cn1`, inactive: 0.99.
In the case of `C[C@@H]1CCCCO[C@H](CN(C)Cc2ccc(C(F)(F)F)cc2)[C@H](C)CN([C@H](C)CO)C(=O)c2cc(NS(=O)(=O)c3ccccc3)ccc2O1`, the relative growth is inactive: 1.03.
With `Cc1noc(C)c1NC(=O)Nc1ccc2c(c1)C(=O)N([C@H](C)CO)C[C@H](C)[C@@H](CN(C)Cc1ccncc1)OCCCC[C@@H](C)O2`, the relative growth was inactive: 0.989.
For the compound `CCO[C@@H]1OC(C(=O)N2CCN(Cc3ccccc3)CC2)=C[C@H](c2csc3ccccc23)[C@H]1CCCOC(=O)NCCCCCC(=O)NO`, the relative growth is inactive: 0.97.
For `Cc1noc(C)c1NC(=O)Nc1ccc2c(c1)C(=O)N([C@@H](C)CO)C[C@@H](C)[C@@H](CN(C)CC1CCCCC1)OCCCC[C@@H](C)O2`, the relative growth is inactive: 1.01.
The figure for `COc1ccc(S(=O)(=O)N(C)C[C@@H]2OCCCC[C@@H](C)Oc3ccc(NC(=O)CCC(F)(F)F)cc3C(=O)N([C@H](C)CO)C[C@@H]2C)cc1` is inactive: 1.01; for `C[C@@H]1CN([C@@H](C)CO)C(=O)Cc2cc(NC(=O)C3CCCCC3)ccc2O[C@@H]1CN(C)C(=O)Nc1ccc(C(F)(F)F)cc1` it is inactive: 0.971.
The figure for `CCOC(=O)C(CCc1ccccc1)NC(C)C(=O)N1C(C(=O)O)CC2CCCC21` (centres undefined) is inactive: 1.03; for `Cc1ccc(S(=O)(=O)N2C[C@H](O)COC[C@@H]3O[C@@H](CC(=O)N[C@@H]4CCN(Cc5ccccc5)C4)CC[C@H]32)cc1` it is inactive: 0.964.
The figure for `Cc1ccc(S(=O)(=O)N(C)C[C@H]2Oc3c(NS(=O)(=O)c4cn(C)cn4)cccc3C(=O)N([C@H](C)CO)C[C@@H]2C)cc1` is inactive: 1; for `C[C@@H]1CN([C@@H](C)CO)C(=O)c2cc(NC(=O)Nc3ccc(F)cc3)ccc2O[C@@H](C)CCCCO[C@H]1CN(C)CC1CC1` it is inactive: 0.975; for `C[C@H]1CN([C@@H](C)CO)C(=O)c2cccc(NC(=O)NC3CCCCC3)c2O[C@@H]1CN(C)S(C)(=O)=O` it is inactive: 0.988.
For `CC(C)NC(=O)Nc1ccc2c(c1)C(=O)N([C@@H](C)CO)C[C@@H](C)[C@H](CN(C)C(=O)NC1CCCCC1)O2`, the relative growth is inactive: 1.01.
Under `Cc1cc(OCc2nnc(SC3CCCC3)n2-c2cccnc2)ccc1-c1ccc(S(C)(=O)=O)cc1` stands inactive: 1.04.
The figure for `Cc1ccc(S(=O)(=O)N(C)C[C@H]2Oc3ncc(-c4ccncc4)cc3C(=O)N([C@H](C)CO)C[C@@H]2C)cc1` is inactive: 0.995; for `C[C@H]1CN([C@@H](C)CO)C(=O)c2cc(C#CCN(C)C)cnc2O[C@H]1CN(C)C(=O)CN1CCOCC1` it is inactive: 1.01; for `C[C@@H]1CCCCO[C@@H](CN(C)C(=O)Nc2cccc3ccccc23)[C@H](C)CN([C@H](C)CO)C(=O)c2cc(NC(=O)CCC(F)(F)F)ccc2O1` it is inactive: 1.02.
For `COc1cccc(NC(=O)N(C)C[C@@H]2Oc3ncc(C#Cc4cccnc4)cc3C(=O)N([C@@H](C)CO)C[C@@H]2C)c1`, the relative growth is inactive: 0.976.
The figure for `Cc1ccnc(NC(=O)Cn2cnc3c2c(=O)n(C)c(=O)n3C)n1` is inactive: 0.971; for `CN(C)CC(=O)N[C@@H]1C=C[C@H](CC(=O)O)O[C@H]1CO` it is inactive: 0.997.
Under `Cc1noc(C)c1NC(=O)N(C)C[C@H]1OCCCC[C@@H](C)Oc2ccc(NC(=O)Cc3ccccc3)cc2C(=O)N([C@H](C)CO)C[C@H]1C` stands inactive: 0.991.
The figure for `CC(C)NC(=O)Nc1cccc2c1O[C@@H](CN(C)Cc1ccc(Oc3ccccc3)cc1)[C@@H](C)CN([C@@H](C)CO)C2=O` is inactive: 0.994.
In the case of `C[C@H](CO)N1C[C@H](C)[C@@H](CN(C)Cc2cccc(C(=O)O)c2)OCc2ccccc2-c2c(n(C)c3ccccc23)C1=O`, the relative growth was inactive: 0.997.
The figure for `CCOC(=O)CCCCCC(=O)Nc1ccc2c(c1)C(=O)N([C@H](C)CO)C[C@@H](C)[C@@H](CN(C)S(=O)(=O)c1ccc(Cl)cc1)OCCCC[C@H](C)O2` is inactive: 1.03.
For `CO[C@@H](C)n1cc(Br)c(=O)[nH]c1=O`, the relative growth was inactive: 1.02.
The figure for `CNc1ncnc2c1ncn2[C@@H]1O[C@H](CO)[C@@H](O)[C@H]1O` is inactive: 0.993; for `COc1ccccc1N1CCN(c2ncc(C(=O)N3CCN(c4cccc(Cl)c4)CC3)c3ccccc23)CC1` it is inactive: 0.994.
Under `O=C(C[C@@H]1C=C[C@@H](NC(=O)C2CCC2)[C@H](CO)O1)NCCCN1CCOCC1` stands inactive: 0.945; under `C[C@H](CO)N1C[C@H](C)[C@@H](CN(C)Cc2ccc(-c3ccccc3)cc2)Oc2ncc(-c3cccnc3)cc2C1=O`, inactive: 1.02; under `O=S1(=O)CCOCC1`, inactive: 1.
`CC(C)(C(=O)O)c1ccc([C@@H](O)CCCN2CCC(C(O)(c3ccccc3)c3ccccc3)CC2)cc1`: the relative growth was inactive: 0.996.
With `COc1ccc(NC(=O)N(C)C[C@@H]2OCCCC[C@@H](C)Oc3ccc(NS(=O)(=O)c4ccc(C)cc4)cc3C(=O)N([C@@H](C)CO)C[C@H]2C)cc1`, the relative growth is inactive: 1.03.
The figure for `C[C@H]1CN([C@@H](C)CO)C(=O)c2cc(NC(=O)C3CCCCC3)ccc2O[C@@H]1CN(C)C(=O)Nc1cccc2ccccc12` is inactive: 0.976; for `C[C@H](CO)N1C[C@H](C)[C@H](CN(C)C(=O)Nc2cccc3ccccc23)Oc2c(NC(=O)Nc3ccc4c(c3)OCO4)cccc2C1=O` it is inactive: 0.99.
The figure for `C[C@@H]1CCCCO[C@H](CN(C)C(=O)c2ccccc2)[C@@H](C)CN([C@H](C)CO)C(=O)c2cc(NC(=O)Nc3cccc4ccccc34)ccc2O1` is inactive: 1.02.
The figure for `COc1ccccc1-c1cnc2c(c1)C(=O)N([C@@H](C)CO)C[C@@H](C)[C@@H](CN(C)C(=O)c1cccnc1)O2` is inactive: 1; for `COC(=O)[C@@H]1[C@@H](CO)[C@@H]2Cn3c(cccc3=O)[C@@H]2N1C(=O)C1CC1` it is inactive: 0.986; for `Cn1cnc(S(=O)(=O)N2C[C@@H](O)COC[C@@H]3O[C@H](CC(=O)NC4CCC4)CC[C@H]32)c1` it is inactive: 0.964.
With `C[C@H](CO)N1C[C@H](C)[C@H](CN(C)S(C)(=O)=O)Oc2ccc(NS(=O)(=O)c3cn(C)cn3)cc2CC1=O`, the relative growth was inactive: 0.961.
Under `Cc1cc(C(=O)Nc2cccc3c2O[C@H](CN(C)S(=O)(=O)c2ccc(Cl)cc2)[C@@H](C)CN([C@H](C)CO)C3=O)n(C)n1` stands inactive: 1.01.
Under `C[C@H](NC(=O)C[C@H]1C[C@H]2c3cc(NC(=O)Nc4ccc(C(F)(F)F)cc4)ccc3O[C@H]2[C@H](CO)O1)c1ccccc1` stands inactive: 0.948.
Under `C[C@@H]1CCCCO[C@@H](CN(C)CC2CC2)[C@@H](C)CN([C@H](C)CO)C(=O)c2cc(NS(C)(=O)=O)ccc2O1` stands inactive: 0.997.
For the compound `Cc1nc2n(c(=O)c1C)[C@H](CC(=O)O)CS2`, the relative growth is inactive: 0.975.

The record behind these values is the supplement of paper PMC9446081.
